Laboratory results taken from patent US20260206763A1, “AMIDE COMPOUNDS OR SALTS THEREOF, BACTERICIDAL AGENTS FOR AGRICULTURE AND HORTICULTURE CONTAINING SAID COMPOUNDS, AND METHOD OF USING SAME” (NIHON NOHYAKU CO., LTD., priority 2022, published 2026).

Tested on: tomato late blight fungus
Format: in vivo, Phytophthora infestans
Conditions: 200 ppm, foliar application, 5 or 6 days after inoculation

O=C(NCc1ccccn1)C1(c2cc(Cl)cc(Cl)c2)CC1(Cl)Cl (stereo not shown) [I-A-17]
control efficacy (activity level) on tomato late blight: 1 (the control rate is 10 to 19%)
